# Test results from the supplement of paper PMC7826260.
# The other results are listed elsewhere or left out. One pool of 16,384 single-stranded DNAs met each Rep nickase domain in vitro for 1 h at 37 °C with 3 µM enzyme; only the middle of the 90-letter strands is printed. The score is log2 (uncut reads / reads without enzyme); uncut sequences lie near 0, cut ones below; no hit call is given. Counts are relative to all reads; where an enzyme cuts many sequences, the uncut ones exceed 0.
# System: T1, Rep nickase domain of tomato golden mosaic virus
# T1 sequence (residues 1-124 of Rep, tag left off): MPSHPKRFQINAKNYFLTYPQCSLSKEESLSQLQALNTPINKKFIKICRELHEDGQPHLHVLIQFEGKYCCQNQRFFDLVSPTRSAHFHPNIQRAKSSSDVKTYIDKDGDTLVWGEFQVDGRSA
# Test: uncleaved DNA left, log2 of reads against the no-enzyme library (log2 ratio); higher = less cleavage (more negative = more Rep cleavage of the k-mer); sequences stand for … in CTCGTCCG…ACCGGAGA
# Description: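 A pool of 90-nt single-stranded DNAs with seven random bases just before the constant AC of the nick site (name = the seven bases) was cut by 3 µM recombinant His6-SUMO-tagged Rep nickase domain (300 nM DNA, 50 mM HEPES pH 8.0, 50 mM NaCl, 1 mM MnCl2, 1 h, 37 °C, three replicates). Uncut DNA was amplified and sequenced.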
row,Sequence,uncleaved DNA left (log2)
1,ATCGTTT,-0.0848
2,TATAAAC,0.0866
3,CACCACT,-0.296
4,GACACGT,-0.0186
5,TCTATCG,-0.1
6,CGTATTG,-0.156
7,GTTAACA,0.194
8,TCAACAA,0.0343
9,AATGTTT,-0.00462
10,TGTTAAT,0.0362
11,CTGTCTG,-0.0331
12,GTTGTGC,0.0421
13,CACGATC,-0.0504
14,TCATGGG,0.0745
15,ATGACCT,-0.0464
16,GAGCCCC,-0.0179
17,ATGGTGT,0.0466
18,CACTAAT,-0.232
19,CACGGTA,-0.0743
20,GGGCTAG,0.256

row,Sequence,uncleaved DNA left (log2)
1,CTGGTGG,0.075
2,AATGGAG,-0.0542
3,ATCGTGG,0.021
4,GAATACG,0.0494
5,AATGTGA,0.0556
6,AGAGAAG,0.198
7,CTGATTG,-0.12
8,TCCGTCC,-0.112
9,CTAGGAG,0.0454
10,GCATAAT,0.188
11,TGCTCAT,-0.124
12,CAGGTGG,-0.138
13,GTGAGGC,0.109
14,CCCACCA,-0.147
15,CGTCGTA,-0.0161
16,CACGTTC,-0.0691
17,GTCATAT,-0.00517
18,CTGGACA,0.156
19,AGGGATC,-0.0971
20,ACCCCGG,0.219
